# Measured values reported in PubChem BioAssay (Tox21).
# Where “and” joins values, the source holds several entries; their conditions need not be identical. Identical values can stand only once. The inconclusive results got no clear call from the source; some entries with a clear call stand among them for comparison. For some assays here: Potencies beside an inconclusive call are fits to weak or partial responses and may not hold up. Calls of active or inactive are those of the source. Unless noted, calls follow the shape of the full dose curve.
# Legend:
# [1] = target: Peroxisome proliferator-activated receptor gamma (Homo sapiens) (UniProt P37231); test: qHTS assay to identify small molecule agonists of the peroxisome proliferator-activated receptor gamma (PPARg) signaling pathway (AID 743094; active = well fitted activation curve with a large enough effect in the signal ratio in the repeat runs, not every such curve was filed as active; inconclusive = weak or mixed curves, or effect the other way; inactive = no such curve, though single readings can be large or run the other way; the % refers to the signal ratio; also: potency is read from the fitted curve at half-maximal effect); details: HEK293H PPARg-UAS-bla, beta-lactamase FRET ratio, 17 h; activation: at 57 µM (top of the series) unless noted
# UniProt P37231, sequence (P37231 whole entry, looked up): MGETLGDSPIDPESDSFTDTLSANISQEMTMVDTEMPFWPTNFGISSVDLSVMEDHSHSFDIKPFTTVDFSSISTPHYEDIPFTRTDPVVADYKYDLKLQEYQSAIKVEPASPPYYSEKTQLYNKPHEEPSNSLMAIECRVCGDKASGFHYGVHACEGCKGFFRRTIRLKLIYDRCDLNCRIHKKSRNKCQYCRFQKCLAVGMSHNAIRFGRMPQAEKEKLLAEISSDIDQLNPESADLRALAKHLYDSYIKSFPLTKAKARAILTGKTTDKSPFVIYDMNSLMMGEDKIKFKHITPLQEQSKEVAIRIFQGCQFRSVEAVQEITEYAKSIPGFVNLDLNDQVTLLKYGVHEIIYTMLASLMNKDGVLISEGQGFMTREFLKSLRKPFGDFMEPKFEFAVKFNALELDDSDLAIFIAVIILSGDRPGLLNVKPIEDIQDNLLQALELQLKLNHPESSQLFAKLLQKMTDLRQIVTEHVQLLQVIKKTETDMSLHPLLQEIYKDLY
# Summary of the method: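 Agonism was assessed in a beta-lactamase reporter system, HEK293H cells with a stably integrated UAS-bla construct under PPARg control; the 17 h treatment at 37C preceded a 1 h room-temperature FRET substrate read.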
# [2] = target: Peroxisome proliferator-activated receptor gamma (Homo sapiens) (UniProt P37231); test: qHTS assay to identify small molecule antagonists of the peroxisome proliferator-activated receptor gamma (PPARg) signaling pathway (AID 743191); details: HEK293H PPARg-UAS-bla, beta-lactamase ratio, antagonist, 17 h; ratio activity, negative = inhibition: at 62.6 µM (top of the series) unless noted; also: nearly all actives have a fitted effect of over 30% in size; also: potency is read from the fitted curve at half-maximal effect
# Summary of the method: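 GeneBLAzer PPARg UAS-bla HEK293H cells, 5 h post-plating, exposed to compounds 17 h at 37C. LiveBLAzer B/G FRET substrate added for 1 h at room temperature; beta-lactamase reporter read by fluorescence intensity.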
# [3] = qHTS assay for small molecule activators of the heat shock response signaling pathway - cell viability counter screen (AID 743209; active = well fitted curve in the direction sought with a large enough effect in the repeat runs; inconclusive = weak or mixed curves; inactive = no such curve, though single readings can be large; an effect the other way counts as inactive or inconclusive; also: nearly all actives have a fitted effect of over 50% in size; also: potency is read from the fitted curve at half-maximal effect); details: HSE-bla HeLa viability, CellTiter-Glo luminescence, 5 h; activity change, negative = cytotoxicity: at 62.6 µM (top of the series) unless noted
# Summary of the method: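 Compounds dissolved in DMSO were added to overnight-plated HSE-bla HeLa cells and left 5 h at 37 C. Cell viability was quantified by luminescence using CellTiter-Glo.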
# [4] = qHTS assay for small molecule agonists of the antioxidant response element (ARE) signaling pathway (AID 743202; active = well fitted activation curve with a large enough effect in the signal ratio in the repeat runs, not every such curve was filed as active; inconclusive = weak or mixed curves, or effect the other way; inactive = no such curve, though single readings can be large or run the other way; the % refers to the signal ratio; also: potency is read from the fitted curve at half-maximal effect); details: HepG2 ARE-bla reporter, beta-lactamase FRET, 16 h; activation: at 73.3 µM (top of the series) unless noted
# Summary of the method: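 HepG2 ARE-bla cells; 16 h treatment at 37 C; FRET-based beta-lactamase fluorescence read after 2 h substrate incubation at room temperature.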
# [5] = qHTS assay for small molecule activators of the heat shock response signaling pathway (AID 743210; active = well fitted activation curve with a large enough effect in the signal ratio in the repeat runs, with a control signal flat, not every such curve was filed as active; inconclusive = weak or mixed curves; the % refers to the signal ratio; also: potency is read from the fitted curve at half-maximal effect;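 as to activation: HeLa cells with beta-lactamase reporter driven by heat shock elements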); details: HeLa HSE-bla reporter, beta-lactamase ratio, 5 h; activation: at 62.6 µM (top of the series) unless noted
# Summary of the method: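 Following overnight attachment, HSE-bla HeLa cells received test compounds for 5 h at 37 C; beta-lactamase activity was then detected via FRET substrate fluorescence.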
# [6] = qHTS assay to identify small molecule agonists of the peroxisome proliferator-activated receptor delta (PPARd) signaling pathway - cell viability counter screen (AID 743211; active = well fitted curve in the direction sought with a large enough effect in the repeat runs; inconclusive = weak or mixed curves; inactive = no such curve, though single readings can be large; an effect the other way counts as inactive or inconclusive; also: nearly all actives have a fitted effect of over 55% in size; also: potency is read from the fitted curve at half-maximal effect); details: PPARd-bla HEK293H viability, CellTiter-Glo luminescence, 17 h; activity change, negative = cytotoxicity: at 62.6 µM (top of the series)
# Summary of the method: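 Tox21 library compounds, delivered in DMSO, were incubated 17 h with PPARd-bla HEK293H cells; cytotoxicity was taken from CellTiter-Glo luminescence read 30 min after reagent addition.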
# [7] = qHTS assay for small molecule agonists of the antioxidant response element (ARE) signaling pathway - cell viability counter screen (AID 743203); details: ARE-bla HepG2 viability, CellTiter-Glo luminescence, 16 h; viability change, negative = cytotoxic: at 73.3 µM (top of the series); also: nearly all actives have a fitted effect of over 55% in size
# Summary of the method: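 ATP content via CellTiter-Glo luminescence served as the viability measure. Cells: ARE-bla HepG2, 2,000 per well. Exposure: 16 hrs, 37C/5% CO2.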
# % is scaled to controls: 0 for no effect and ±100 for the full control effect; tags tell the direction and shape of the fitted curve or compound fluorescence and quenching.
smiles,measurement,setting,value
O=CNNC=O,Potency,[1],inactive
same,"ratio activity, negative = inhibition",[2],inconclusive: -6.06% [at 81.1 µM]
same,Potency,[3],"inconclusive: 39.5 µM [rising, partial curve, poor fit]"
Nc1ccc(Cl)c(N)c1,activation,[1],inconclusive: -10.1% and inconclusive: -12.8%
same,Potency,[2],"inconclusive: 7.78 µM [inhibitor, full curve] and inconclusive: 8.71 µM [inhibitor, full curve]"
same,activation,[4],inconclusive: 30.9% and inconclusive: 10.1%
same,Potency,[5],inactive
COc1ccc(O)cc1,activation,[1],inconclusive: -6.74% and inconclusive: -15.5% and inconclusive: -15.8%
same,Potency,[2],"inconclusive: 47.2 µM [inhibitor, partial curve] and inconclusive: 27.5 µM [inhibitor, partial curve, poor fit] and inconclusive: 11.9 µM [inhibitor, partial curve, poor fit]"
same,Potency,[3],"inconclusive: 0.422 µM [cytotoxic, single point]"
same,Potency,[5],"inconclusive: 0.596 µM [falling, partial curve]"
Sc1nc2ccccc2s1,Potency,[1],"inconclusive: 0.549 µM [activator, full curve]"
same,"ratio activity, negative = inhibition",[2],inconclusive: -22.1%
same,Potency,[5],inconclusive: 9.77 µM [activator]
same,Potency,[6],"inconclusive: 21.9 µM [cytotoxic, partial curve]"
CCCCN1CCCC[C@H]1C(=O)Nc1c(C)cccc1C,Potency,[1],inactive
same,"ratio activity, negative = inhibition",[2],inconclusive: 8.34%
same,activation,[4],inconclusive: -17.7%
same,Potency,[6],"inconclusive: 7.5 µM [cytotoxic, single point]"
CC(C)C1=CC2=CC[C@@H]3[C@](C)(CCC[C@@]3(C)C(=O)O)[C@H]2CC1,activation,[1],inconclusive: -19.4%
same,Potency,[2],inconclusive: 54.9 µM
same,Potency,[4],"inconclusive: 61.1 µM [rising, partial curve, poor fit]"
same,Potency,[5],inconclusive: 61.6 µM
CC(C)(C)C(=O)OCOC(=O)[C@@H]1N2C(=O)[C@@H](NC(=O)[C@H](N)c3ccccc3)[C@H]2SC1(C)C,Potency,[1],"inconclusive: 2.04 µM [falling, partial curve, poor fit]"
same,"ratio activity, negative = inhibition",[2],inconclusive: 4.34%
same,activation,[4],inconclusive: 11.7%
CCC(=O)OC(=O)CC,Potency,[1],inactive
same,"ratio activity, negative = inhibition",[2],inconclusive: 32.8%
same,Potency,[4],"inconclusive: 17.1 µM [rising, full curve, poor fit]"
same,Potency,[5],inactive
CC(C)CC(O)CC(C)C,Potency,[1],inactive
same,"ratio activity, negative = inhibition",[2],inconclusive: -0.524%
same,Potency,[4],"inconclusive: 68.6 µM [rising, single point]"
same,Potency,[3],inactive
Brc1c2ccccc2cc2ccccc12,Potency,[1],active: 49.5 µM
same,Potency,[2],inconclusive: 49.5 µM [activator]
same,Potency,[4],inconclusive: 61.8 µM
same,Potency,[5],inconclusive: 42.4 µM [activator]
O=C1OC(=O)c2cc([N+](=O)[O-])ccc21,Potency,[1],inactive
same,Potency,[2],inactive
same,activation,[4],inconclusive: 23.1%
CCCCCCCCc1ccc(S(=O)(=O)O)cc1,Potency,[1],inactive
same,Potency,[2],active: 43.3 µM
same,Potency,[4],"inconclusive: 27.1 µM [rising, partial curve]"
CCCC(=O)OC(=O)CCC,Potency,[1],inactive
same,"ratio activity, negative = inhibition",[2],inconclusive: 4.03% [at 81.1 µM]
same,activation,[4],inconclusive: -3.24% [at 94.8 µM]
same,Potency,[6],inactive
CCCCCc1ccco1,activation,[1],inconclusive: -14.6%
same,Potency,[2],inconclusive: 28.4 µM [partial curve]
same,activation,[4],inconclusive: 33.1%
same,"viability change, negative = cytotoxic",[7],inconclusive: -34% [cytotoxic]
same,Potency,[3],"inconclusive: 28.4 µM [cytotoxic, partial curve]"
same,Potency,[5],inconclusive: 40.2 µM [activator]
same,Potency,[6],"inconclusive: 1.43 µM [cytotoxic, full curve, poor fit]"
CC(C)[N+](C)(CCOC(=O)C1c2ccccc2Oc2ccccc21)C(C)C,Potency,[1],inconclusive: 43.6 µM [activator]
same,"ratio activity, negative = inhibition",[2],inconclusive: 1.29%
same,activation,[4],inconclusive: -0.0198%
same,Potency,[5],inactive
CC(C)NC[C@@H](O)COc1ccc(CC(N)=O)cc1,Potency,[1],inactive
same,"ratio activity, negative = inhibition",[2],inconclusive: 11.3%
same,Potency,[5],inactive
O=C(O)c1cc(-c2ccc(F)cc2F)ccc1O,activation,[1],inconclusive: 10.1% [at 26.2 µM]
same,Potency,[2],"inconclusive: 18.8 µM [rising, partial curve]"
same,Potency,[4],active: 13.3 µM
